Data reported in PubChem BioAssay AID1347165 (National Center for Advancing Translational Sciences (NCATS), 2019).
Among all 220,000 compounds or so, about 5,700 (2.6%) were called active. This list was built around the results that the source calls inconclusive (neither active nor inactive); the mix of calls is not that of the screen. Calls come from the whole dose curve; as a rule, active = well fitted inhibition curve with a large enough effect; inconclusive = small, poorly fitted or top-dose-only effect; inactive = no such curve, though single readings can be large or run the other way. A potency beside an inconclusive call is a rough fit, not a confirmed value.

biological target: Lysine-specific demethylase 5B (Homo sapiens) (UniProt Q9UGL1); experiment: Primary screen for KDM5B Histone Demethylases FDH-coupled qHTS; conditions: FDH-coupled NADH fluorescence (FDH is formaldehyde dehydrogenase); series mostly up to 57.7 µM; note: nearly all actives have a fitted effect of over 70% in size
Outline: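 Compound dilutions met 200 nM (final) KDM5BΔAP for 10 min at room temperature before substrate addition. The substrate mix held 12.5 µM H3K4me3 with cofactors 25 µM α-ketoglutarate and 50 µM Fe²⁺. NADH signal gain over 30 min defined activity.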
Potency is the fitted concentration of half-maximal effect; tags give direction and shape of the fitted curve.

Chain of UniProt Q9UGL1 (Q9UGL1 whole entry, looked up): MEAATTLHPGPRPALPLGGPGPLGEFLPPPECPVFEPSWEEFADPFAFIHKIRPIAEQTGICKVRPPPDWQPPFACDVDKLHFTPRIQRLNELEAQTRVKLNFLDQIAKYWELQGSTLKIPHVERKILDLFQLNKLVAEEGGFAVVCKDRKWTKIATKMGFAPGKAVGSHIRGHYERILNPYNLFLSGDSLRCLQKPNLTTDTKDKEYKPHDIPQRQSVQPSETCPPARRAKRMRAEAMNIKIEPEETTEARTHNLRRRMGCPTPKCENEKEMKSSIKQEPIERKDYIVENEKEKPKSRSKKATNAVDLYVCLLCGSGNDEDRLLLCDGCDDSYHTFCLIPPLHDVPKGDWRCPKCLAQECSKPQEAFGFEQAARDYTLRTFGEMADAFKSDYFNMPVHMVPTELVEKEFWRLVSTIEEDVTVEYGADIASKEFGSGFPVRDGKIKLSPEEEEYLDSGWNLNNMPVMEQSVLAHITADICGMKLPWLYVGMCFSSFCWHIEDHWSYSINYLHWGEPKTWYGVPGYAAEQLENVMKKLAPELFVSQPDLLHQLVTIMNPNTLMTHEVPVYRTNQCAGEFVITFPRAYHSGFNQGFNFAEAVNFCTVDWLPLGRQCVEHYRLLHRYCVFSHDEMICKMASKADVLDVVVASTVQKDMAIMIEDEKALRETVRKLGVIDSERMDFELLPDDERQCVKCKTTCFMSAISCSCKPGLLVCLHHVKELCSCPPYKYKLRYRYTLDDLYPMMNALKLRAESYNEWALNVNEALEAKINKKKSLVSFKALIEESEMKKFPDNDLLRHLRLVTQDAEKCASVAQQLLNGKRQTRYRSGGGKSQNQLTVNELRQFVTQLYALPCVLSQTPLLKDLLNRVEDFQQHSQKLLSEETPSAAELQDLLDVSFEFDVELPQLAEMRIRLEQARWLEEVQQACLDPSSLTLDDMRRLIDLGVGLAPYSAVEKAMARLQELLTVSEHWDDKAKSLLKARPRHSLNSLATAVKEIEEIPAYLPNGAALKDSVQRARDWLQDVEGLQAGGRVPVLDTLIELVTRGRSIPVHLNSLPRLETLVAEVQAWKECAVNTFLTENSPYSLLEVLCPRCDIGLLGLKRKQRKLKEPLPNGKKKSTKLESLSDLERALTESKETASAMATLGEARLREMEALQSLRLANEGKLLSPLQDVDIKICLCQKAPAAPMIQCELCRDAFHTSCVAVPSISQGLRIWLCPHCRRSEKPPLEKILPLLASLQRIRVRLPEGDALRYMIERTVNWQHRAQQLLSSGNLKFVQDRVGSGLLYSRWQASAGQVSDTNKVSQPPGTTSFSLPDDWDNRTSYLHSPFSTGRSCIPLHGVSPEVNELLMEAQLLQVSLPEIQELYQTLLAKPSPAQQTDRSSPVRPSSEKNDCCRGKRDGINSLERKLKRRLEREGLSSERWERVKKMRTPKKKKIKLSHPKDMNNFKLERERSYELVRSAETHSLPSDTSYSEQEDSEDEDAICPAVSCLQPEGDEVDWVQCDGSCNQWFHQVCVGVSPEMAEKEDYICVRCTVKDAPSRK

Row | Structure (SMILES) | Potency
1 | N#Cc1cnn2c(C(F)(F)F)cc(-c3ccco3)nc12 | inconclusive: 1.78 µM [inhibitor, partial curve, poor fit]
2 | O=C(NC(=S)Nc1cccnc1Cl)c1ccc(Cl)cc1 | inconclusive: 35.5 µM [inhibitor, single point]
3 | COc1cccc(Nc2ccc3nnc(-c4cc(OC)ccn4)n3n2)c1 | active: 28.2 µM
4 | CC(Oc1cc2oc(=O)cc(-c3ccccc3)c2cc1Cl)C(=O)NCc1ccccn1 (stereo not drawn) | inconclusive: 35.5 µM [inhibitor, partial curve, poor fit]
5 | O=C(N[C@H]1CCOC[C@H]1C1CCOCC1)c1cccc2nccnc12 | inactive
6 | Cc1ccccc1CNC(=O)c1ccc(Cn2c(SCc3cccc(F)c3)nc3cccnc32)cc1 | inconclusive: 35.5 µM [inhibitor, partial curve, poor fit]
7 | NC(=O)NCC(=O)N[C@H]1CC[C@H](Nc2nccc(-c3ccncc3)n2)C1 | inconclusive: 28.2 µM [inhibitor, single point]
8 | N#Cc1ccc(C(=O)NC2CCN(c3cc(-c4cccs4)[nH]n3)C2)cc1 (stereo not drawn) | inconclusive: 14.1 µM [inhibitor, partial curve, poor fit]
9 | Fc1ccc(CCNc2nccc(-c3cccnc3)n2)cc1 | inconclusive: 31.6 µM [inhibitor, partial curve, poor fit]
10 | O=C(COc1ccccc1)Nc1ccc2n(c1=O)C[C@H]1C[C@@H]2CN(C(=O)c2ccccn2)C1 | inconclusive: 25.1 µM [inhibitor, partial curve, poor fit]
11 | CCOC(=O)c1cc(NC(=O)CC2CCCC2)cc(C(=O)OCC)c1 | inactive
12 | Cc1cc(C)nc(NC(c2ccccn2)c2cc(C)sc2NC(=O)c2ccco2)n1 (stereo not drawn) | inactive
13 | Clc1ccc(CN2CCN(Cc3nnsc3Cl)CC2)cc1 | inactive
14 | COC(=O)C(C)OC(=O)c1ccc(OC)c2ccccc12 (stereo not drawn) | inconclusive: 39.8 µM [inhibitor, single point]
15 | Cc1ccccc1OCCN(C)C(=O)c1cc2ccccc2[nH]1 | inactive
16 | COc1cc(/C=C/C(=O)c2ccc(OC(=O)c3cccs3)cc2)cc(OC)c1OC | inactive
17 | CC(C)CCNC(=O)C1CC(=O)N(c2n[nH]c3cc(Br)ccc23)C1 (stereo not drawn) | inconclusive: 15.8 µM [inhibitor, partial curve, poor fit]
18 | Cc1ccc(NC(=O)CN2c3cccc4cccc(c34)S2(=O)=O)cc1S(=O)(=O)N1CCCCC1 | inconclusive: 31.6 µM [inhibitor, partial curve, poor fit]
19 | COc1ccc2[nH]c3c(c2c1)CCN(C)C31CCN(C(=O)Cc2cccnc2)CC1 | inconclusive: 7.08 µM [inhibitor, partial curve]
20 | O=C(Cn1cnc(S(=O)(=O)N2CCCC2)c1)Nc1ccc(OC(F)(F)F)cc1 | inconclusive: 10 µM [inhibitor, partial curve, poor fit]
21 | COc1cccc(CN2CCCC(Cc3ncc(C)n3Cc3ccccc3)C2)c1OC (stereo not drawn) | inactive
22 | CC(=O)NC1(C)CN(Cc2ccc(-c3ccc4c(ccn4C)c3)s2)C1 | active: 35.5 µM

Row | Structure (SMILES) | Potency
23 | [N-]=C=C1C(=O)NC(=O)C([n+]2ccc(-c3ccncc3)cc2)C1c1ccccc1C(F)(F)F (stereo not drawn) | inconclusive: 31.6 µM [inhibitor, partial curve, poor fit]
24 | CC(C)CCNC(=O)c1nccnc1N | inconclusive: 25.1 µM [inhibitor, partial curve, poor fit]
25 | COc1ccc(-c2nn(-c3ccccc3)cc2C(=O)NCC(C)(C)N2CCOCC2)cc1OC | inactive
26 | CC(/C=C/c1ccccc1)=N\NC(=O)c1ccc(C(C)(C)C)cc1 | inactive
27 | COc1ccc(-c2ccc3nnc(CNC(=O)c4cccc(OC(F)(F)F)c4)n3n2)cc1 | inconclusive: 15.8 µM [inhibitor, partial curve, poor fit]
28 | Cc1oc(-c2nc(C#N)c(N3CCCCCC3)o2)cc1S(=O)(=O)N1CCCCC1 | inconclusive: 1.78 µM [inhibitor, partial curve, poor fit]
29 | C#CCN(C)C(=O)[C@@H]1CCCN1[C@@H](C(=O)NC)c1ccc(OC)cc1 | inconclusive: 25.1 µM [inhibitor, partial curve, poor fit]
30 | CC/C=C(/C)C(=O)NCc1cccc(CN2CCOC(C)C2)c1 (stereo not drawn) | inactive
31 | CCCNC(=O)CNC(=O)C1=NN(C)C(=O)CC1 | inactive
32 | COc1ccc(-c2nc(C#N)c(N3CCC(Cc4ccccc4)CC3)o2)cc1OC | inconclusive: 10 µM [inhibitor, partial curve, poor fit]
33 | O=C1CO[C@H]2CCN(Cc3cccc(OC(F)(F)F)c3)CC[C@@H]2N1Cc1c[nH]c2ccccc12 | inconclusive: 44.7 µM [inhibitor, partial curve, poor fit]
34 | CCOc1ccc(CCNC(=O)c2noc(C)c2Cn2nc(C)cc2C)cc1 | inactive
35 | CCc1cccc(NC(=O)Cn2c(=O)n(CCc3ccc(OC)c(OC)c3)c(=O)c3ccccc32)c1 | inconclusive: 14.1 µM [inhibitor, partial curve, poor fit]
36 | CCNC(=O)c1cc2c(s1)CCC(C(C)(C)C)C2 (stereo not drawn) | inactive
37 | O=C1CCCCC(Cc2ccccc2)(C(=O)NCc2cccc(F)c2)N1 (stereo not drawn) | inactive
38 | COc1ccc([C@H](C)NC(=O)c2c(C)noc2-c2cc(OC)c(OC)c(OC)c2)cc1 | inconclusive: 31.6 µM [inhibitor, partial curve, poor fit]
39 | Cc1nc2sc3c(c2c2nc(C(=O)NCCN4CCOCC4)nn12)CCC3 | inconclusive: 6.31 µM [inhibitor, full curve, poor fit]
40 | CCNC(=O)O[C@@H]1CO[C@H]2[C@@H]1OC[C@@H]2NC(=S)Nc1ccc(N(C)C)cc1 | inactive
41 | Cc1noc2nc(-c3ccccc3F)cc(C(=O)NCc3ccccc3)c12 | inconclusive: 25.1 µM [inhibitor, partial curve, poor fit]
42 | CCOc1ccc(NC(=O)c2sc(-c3ccco3)nc2-c2ccccc2)cc1OC | inactive
43 | CCN1C(=O)C2CC3(CCN(Cc4cccn4C)CC3)CN2C1=O (stereo not drawn) | inconclusive: 8.91 µM [inhibitor, partial curve, poor fit]
